Paper PMC4336329 (PLoS ONE, 2015)
Hit rate of the full screen: of about 310,000 compounds, about 14,000 (4.5%) showed an effect of 50% or more. Effects have a minus sign here. This is one part of the list.

molecular target: human ether-à-go-go-related gene (hERG) potassium channel (human, UniProt Q12809); test: primary screen, population patch clamp on CHO cells stably expressing hERG
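Also: peak tail current of the secondary pulse compared with the same well before compound.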

Sequence of human ether-à-go-go-related gene (hERG) potassium channel (Q12809 whole entry, looked up): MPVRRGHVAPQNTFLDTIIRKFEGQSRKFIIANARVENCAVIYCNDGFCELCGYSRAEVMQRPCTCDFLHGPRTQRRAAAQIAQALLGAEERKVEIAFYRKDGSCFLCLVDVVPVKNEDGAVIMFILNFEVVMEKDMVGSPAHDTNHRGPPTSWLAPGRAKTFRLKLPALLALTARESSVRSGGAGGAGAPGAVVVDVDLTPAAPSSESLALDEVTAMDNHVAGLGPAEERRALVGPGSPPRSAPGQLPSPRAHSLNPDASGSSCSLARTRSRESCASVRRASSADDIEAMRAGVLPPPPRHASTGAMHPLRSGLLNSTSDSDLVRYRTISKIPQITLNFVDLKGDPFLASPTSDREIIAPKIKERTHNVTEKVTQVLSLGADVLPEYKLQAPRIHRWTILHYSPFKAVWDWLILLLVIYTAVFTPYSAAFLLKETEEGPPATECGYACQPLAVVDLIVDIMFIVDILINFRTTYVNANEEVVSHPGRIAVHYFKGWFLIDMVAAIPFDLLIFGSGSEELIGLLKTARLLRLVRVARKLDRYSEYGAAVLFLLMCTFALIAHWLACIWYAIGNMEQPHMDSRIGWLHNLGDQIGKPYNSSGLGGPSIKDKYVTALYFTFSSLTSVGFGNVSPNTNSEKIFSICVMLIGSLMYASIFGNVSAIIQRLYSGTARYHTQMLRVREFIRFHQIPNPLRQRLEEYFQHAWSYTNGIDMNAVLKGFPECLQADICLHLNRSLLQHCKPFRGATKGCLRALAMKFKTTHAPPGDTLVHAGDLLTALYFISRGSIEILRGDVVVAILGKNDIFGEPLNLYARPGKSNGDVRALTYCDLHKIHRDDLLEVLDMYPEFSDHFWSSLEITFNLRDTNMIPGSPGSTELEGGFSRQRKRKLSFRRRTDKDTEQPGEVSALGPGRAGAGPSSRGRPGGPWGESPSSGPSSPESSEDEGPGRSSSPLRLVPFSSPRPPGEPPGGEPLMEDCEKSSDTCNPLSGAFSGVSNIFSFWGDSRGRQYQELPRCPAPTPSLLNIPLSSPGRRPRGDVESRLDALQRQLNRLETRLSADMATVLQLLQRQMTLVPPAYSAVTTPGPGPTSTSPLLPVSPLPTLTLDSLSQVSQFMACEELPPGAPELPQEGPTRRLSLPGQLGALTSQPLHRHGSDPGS

| SMILES | hERG current change (%, negative = inhibition) at 10uM |
| --- | --- |
| COc1ccc(CCNC(=O)C2CCN(S(=O)(=O)c3c(C)noc3C)CC2)cc1OC | -16.9% |
| COc1ccc(/C=N/NC(=O)CNC(=O)c2ccncc2)cc1OC | 8.67% |
| CCn1c(SCC(=O)NC2CCCCC2)nc2c(c1=O)SCC2 | 8.02% |
| CCc1ccc2c(CN3CCN(Cc4ccccc4)CC3)cc(=O)oc2c1 | -79.7% |
| CCNc1ccc(C(=O)OCC(=O)NCc2ccccc2Cl)cc1[N+](=O)[O-] | -6.1% |
| O=C1CC(NS(=O)(=O)c2ccccc2F)CN1c1ccc2c(c1)OCCO2 (centres unmarked) | -11.6% |
| Cc1ccc(NC(=O)COC(=O)CSC(=S)N2CCOCC2)cc1C | 33.5% |
| Cc1cccc(OCC(=O)N/N=C/c2cn[nH]c2-c2ccc(Cl)c(Cl)c2)c1 | 5.1% |
| CCN(CC)C(=O)CSc1nc2ccccc2c(=O)n1CCC(=O)N1CCN(c2ccccc2)CC1 | -49.7% |
| Cc1ccc(S(=O)(=O)c2ccccc2)cc1S | 2.19% |
| N#Cc1ccc(OCc2ccc(C(=O)O)o2)cc1 | 6.06% |
| CSc1ccc(/C=C(/NC(=O)c2ccc(C)cc2)C(=O)Nc2cccc(C)c2)cc1 | -1.38% |
| CCN(c1ccc(NC(=O)CCNC(=O)c2ccco2)cc1)C(C)C | 2.02% |
| CC(C)Cn1nc(NC(=O)c2ccco2)c2cc3ccccc3nc21 | 5.34% |
| CCOc1ccc(NC(=O)C(C)NC(=O)c2ccccc2Cl)cc1S(=O)(=O)N1CCCC1 (centres unmarked) | -14.3% |
| COc1ccc(-n2ncc3c(N4CCc5ccccc54)ncnc32)cc1 | 0.927% |
| CCOc1ccc(OCCC(=O)N(CC)CC(=O)NCc2ccc(Cl)cc2)cc1 | -60.5% |
| Cc1onc(-c2ccccc2)c1C(=O)NC1CCC(C)CC1 (centres unmarked) | -2.17% |
| Br.COc1ccc(-c2csc(Nc3ccc(S(=O)(=O)Nc4cc(OC)nc(OC)n4)cc3)n2)cc1 | 8.67% |

| SMILES | hERG current change (%, negative = inhibition) at 10uM |
| --- | --- |
| CC(=O)C1C2c3ccccc3O[C@@]1(C)N=c1s/c(=C/c3ccoc3)c(=O)n12 (some centres unmarked) | -26.7% |
| C#Cc1ccc([C@@H]2C=C(C(=O)O)O[C@H](OCCCCO)C2)cc1 | 16.3% |
| CN(CCOCCOc1ccc(F)cc1)Cc1ccccc1.O=C(O)C(=O)O | -48.7% |
| CC1CC(C)CN(S(=O)(=O)c2ccc3c(c2)oc(=O)n3CC(=O)NCCCOC(C)C)C1 (centres unmarked) | -2.55% |
| CCOc1ccc2[nH]c3c(NCCOC)ncnc3c2c1 | -9.5% |
| COc1cccc(-c2noc(CCC(=O)Nc3cccnc3)n2)c1 | -5.9% |
| COC(=O)C1=CN(c2ccc(F)cc2)C=C(C(=O)OC)C1c1cccc([N+](=O)[O-])c1 | -26.5% |
| N#CC(c1ccncc1)(c1ncc(C(F)(F)F)cc1Cl)N1CCOCC1 (centres unmarked) | -3.42% |
| CCN(CC)C(=O)CSCc1cnn(-c2ccccc2)c1-n1cccc1 | -24.7% |
| COc1ccc(C)cc1S(=O)(=O)N1CCCCCC1 | -3.18% |
| COc1nc(OC)nc(N2CCCCCC2)n1 | 2.96% |
| Br.NCCCSC1=NCCCN1 | 7.05% |
| COc1cc2c(C)nc3onc(-c4ccccc4)c3c2cc1OC | 14.4% |
| CN1CCN(Cc2cn(C)c3ccccc23)CC1CCO (centres unmarked) | 25.5% |
| Cc1cc(C)n(CC(O)Cn2c3ccc(Br)cc3c3cc(Br)ccc32)c(=O)n1 (centres unmarked) | 19.5% |
| CCOc1ccccc1N(C)C(=O)C1CCN(S(=O)(=O)c2cccc3nonc23)CC1 | -27.1% |
| CCOC(=O)C(C)Oc1ccc(=O)n(-c2ccccc2)n1 (centres unmarked) | 10.8% |
| Cc1ccc(Cn2c(N)nc3ccccc32)cc1 | -10.2% |
| Cc1ccc(S(=O)(=O)NC2(C(F)(F)F)NC(=O)N(c3ccccc3F)C2=O)cc1 (centres unmarked) | 27.4% |

| SMILES | hERG current change (%, negative = inhibition) at 10uM |
| --- | --- |
| O=C(CSc1cc([N+](=O)[O-])cc(S(=O)(=O)Cc2ccccc2)c1)NC1CC1 | -9.88% |
| CCOC(=O)N1CCN(C(=O)CN(Cc2ccc(Cl)cc2)S(C)(=O)=O)CC1 | -15.5% |
| CCCC/S(C)=N/S(=O)(=O)c1ccc(C)cc1 (centres unmarked) | -3.99% |
| COc1ccc([N+](=O)[O-])cc1NC(=O)CC1SC(=Nc2cccc(C)c2C)N(/N=C/c2cccc(OC)c2OC)C1=O (centres unmarked) | 31.1% |
| C#CC1(O)CCC2C3CCC4=C/C(=N/OCC(=O)NCC(=O)NC(C(=O)O)C(C)C)CC[C@]4(C)C3CC[C@@]21C (some centres unmarked) | 13% |
| Cc1ccsc1/C=N/Nc1ncc(Cl)cc1Cl | 5.75% |
| COc1cc(Oc2nc(C(F)(F)F)nc3ccccc23)ccc1C=O | 17% |
| COC(=O)c1cc(Br)c(=O)n(CCc2ccc(F)cc2)c1 | -24.9% |
| O=C(N/N=C/c1ccc[nH]1)c1ccc(COc2cccc3cccnc23)cc1 | -58.3% |
| CCOc1ccc(N(CC(=O)NN=C2CCCC2)S(C)(=O)=O)cc1 | 4.44% |
| CCCCN1C=C(C(=O)OC)C(c2ccccc2C(F)(F)F)C(C(=O)OC)=C1 | -1.84% |
| Cc1ccc2nc(-c3ccccc3C)oc(=O)c2c1 | 19.4% |
| O=C(Cc1c(Cl)cccc1Cl)Nc1cccc(S(=O)(=O)N2CCOCC2)c1 | 7.21% |
| Nc1ccc(Br)c2c1C(=O)c1ccccc1C2=O | 7.66% |
| COc1cccc(-c2ccc3nnc(SCC(=O)N4CCOCC4)n3n2)c1 | -6.27% |
| O=c1cc(O)c(-c2ccc(Cl)c(Cl)c2)c(Cl)[nH]1 | 11.8% |
| Cc1cc2c(cc1C)CN(c1ccccc1)C2 | 6.46% |
| COc1ccc(N(C(=O)c2snc(C(N)=O)c2N)C(C(=O)NCc2ccc(F)cc2)c2ccc(O)cc2)cc1 (centres unmarked) | 8.38% |
